Assay in all cases: co-IP; yeast lysate (50 mM Tris pH 7.5, 0.2% NP40, 150 mM NaCl, 1 mM EDTA); Trs85-mNeonGreen captured on mNeonGreen-Trap resin, Trs23-6xHis-3xFLAG detected by anti-FLAG blot
The target in test [1] is T1, Trs85-mNeonGreen R618A, R619A, R620A, K621A (Saccharomyces cerevisiae) (UniProt P46944).
T1 sequence: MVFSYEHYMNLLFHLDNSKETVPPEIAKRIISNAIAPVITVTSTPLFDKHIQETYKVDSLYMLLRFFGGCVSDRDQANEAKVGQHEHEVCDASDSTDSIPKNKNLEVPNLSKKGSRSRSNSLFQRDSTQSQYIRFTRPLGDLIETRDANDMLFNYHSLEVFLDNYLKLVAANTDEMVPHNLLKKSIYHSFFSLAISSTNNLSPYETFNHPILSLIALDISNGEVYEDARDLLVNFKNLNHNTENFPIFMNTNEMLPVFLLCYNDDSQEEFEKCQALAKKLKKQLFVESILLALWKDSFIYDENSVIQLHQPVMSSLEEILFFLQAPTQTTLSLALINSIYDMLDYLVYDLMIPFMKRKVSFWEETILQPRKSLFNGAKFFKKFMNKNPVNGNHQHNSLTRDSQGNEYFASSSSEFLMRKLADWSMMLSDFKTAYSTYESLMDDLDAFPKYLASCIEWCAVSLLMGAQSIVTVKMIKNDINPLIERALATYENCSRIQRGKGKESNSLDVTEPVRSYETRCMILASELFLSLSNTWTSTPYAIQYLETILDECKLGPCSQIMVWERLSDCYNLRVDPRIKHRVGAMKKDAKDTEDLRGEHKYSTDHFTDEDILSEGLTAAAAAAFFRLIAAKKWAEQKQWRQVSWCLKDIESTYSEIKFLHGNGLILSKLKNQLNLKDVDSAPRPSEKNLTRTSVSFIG

Test [2] addresses T2, Trs85-mNeonGreen R618E, R619E, R620E, K621E (Saccharomyces cerevisiae) (UniProt P46944).
T2 sequence: T1 sequence with A618E, A619E, A620E, A621E

Test [3] has as its target T3, Trs85-mNeonGreen Δ575-603 (Saccharomyces cerevisiae) (UniProt P46944).
T3 sequence: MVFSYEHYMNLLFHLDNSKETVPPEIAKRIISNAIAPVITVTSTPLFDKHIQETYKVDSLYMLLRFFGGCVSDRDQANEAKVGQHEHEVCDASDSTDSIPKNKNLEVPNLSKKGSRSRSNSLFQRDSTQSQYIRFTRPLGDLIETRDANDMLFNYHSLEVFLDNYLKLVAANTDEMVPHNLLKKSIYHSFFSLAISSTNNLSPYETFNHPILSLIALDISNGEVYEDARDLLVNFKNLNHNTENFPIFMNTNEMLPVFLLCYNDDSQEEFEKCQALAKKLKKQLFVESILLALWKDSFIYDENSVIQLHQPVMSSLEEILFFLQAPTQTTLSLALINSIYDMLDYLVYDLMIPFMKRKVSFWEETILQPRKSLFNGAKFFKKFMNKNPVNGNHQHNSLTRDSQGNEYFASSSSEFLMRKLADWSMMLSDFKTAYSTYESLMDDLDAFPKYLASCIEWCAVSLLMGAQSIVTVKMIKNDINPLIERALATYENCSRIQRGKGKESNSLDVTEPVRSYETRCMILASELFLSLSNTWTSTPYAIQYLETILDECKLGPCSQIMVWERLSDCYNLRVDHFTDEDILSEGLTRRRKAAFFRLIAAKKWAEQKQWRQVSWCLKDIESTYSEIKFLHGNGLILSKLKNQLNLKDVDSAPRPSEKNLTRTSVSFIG

Changes are numbered by the printed parent chain. No constants are given. Whether binding was seen depends on the method and setting. In cells and extracts the contact can be indirect. Some results given as binding are weak or reduced against the parent protein; the word gives no strength. Where a sequence is shown, tags or fusion partners need not be part of it.

B1: TRAPP core (endogenous in yeast, with Trs23-6xHis-3xFLAG) (complex, UniProt Q03784 1-219; P38334 1-175; Q03337 1-283; P36149 1-193; Q03630 1-159; Q99394 …)
chain 1: MAIETILVINKSGGLIYQRNFTNDEQKLNSNEYLILASTLHGVFAIASQLTPKALQLTQQTNIENTIPYIPYVGMSSNRSDTRNGGGNNNKHTNNEKLGSFKGDDFFKEPFTNWNKSGLRQLCTDQFTMFIYQTLTGLKFVAISSSVMPQRQPTIATTDKPDRPKSTSNLAIQIADNFLRKVYCLYSDYVMKDPSYSMEMPIRSNLFDEKVKKMVENLQ
chain 2: MPQYFAIIGKKDNPVYEIEFTNAENPQGFPQDLKELNPFILHASLDIVEDLQWQINPTSQLNGNGGNGSNGGGGFLRSRAVNNTDNCYLGKVDHFYGLAITAYISYSGMKFVMIHGNSANSSVVIDDNNMRSFYQEVHELYVKTLMNPFYKITDPIRSPAFDSRVRTLARKHLSK
chain 3: MSQRIIQPSASDQQFPGKSDGYEYTVGPKQAITSEASTTYIPSRIYSESLLFKRQEASLSAMAFLFQEMISQLHRTCKTAGDFETKLSDYGHNIGIRLLELLNFRASVSPSSLPRASAFLSQNESSSKLSNASNSPGMLANSSTATSASANERLQEKQTESLSNYITKMRRRDLKILDILQFIHGTLWSYLFNHVSDDLVKSSERDNEYMIVDNFPTLTQFIPGENVSCEYFVCGIIKGFLFNAGFPCGVTAHRMPQGGHSQRTVYLIQFDRQVLDREGLRFG
chain 4: MVSTTQSRSLKAMGEEIWKNKTEKINTELFTLTYGSIVAQLCQDYERDFNKVNDHLYSMGYNIGCRLIEDFLARTALPRCENLVKTSEVLSKCAFKIFLNITPNITNWSHNKDTFSLILDENPLADFVELPMDAMKSLWYSNILCGVLKGSLEMVQLDCDVWFVSDILRGDSQTEIKVKLNRILKDEIPIGED
chain 5: MGIYSFWIFDRHCNCIFDREWTLASNSASGTINSKQNEEDAKLLYGMIFSLRSITQKLSKGSVKNDIRSISTGKYRVHTYCTASGLWFVLLSDFKQQSYTQVLQYIYSHIYVKYVSNNLLSPYDFAENENEMRGQGTRKITNRNFISVLESFLAPMVNQ
chain 6: MSSTHSNNVGHPQSSPQGPLTEQQRAQQQYQIFENSLPKVSQSVYQMLLNEMVPLAMGIERQISGDVISSDSNVTSENGNINNMIKRLKIEEHHTVDIIRSHNLIHELYKADEEEKEKVLARLRNIGFQIGLKLSELLIFSNNPNLKFKEMDLLLIMKFICRDVWKQIFGKQIDNLKTNHRGTFYLLDYDYRPIQSFSLEEDAKNEELKMIEPFLEIPVGIIRGVLSSLGYSSEEVICLASFIDRPTDRPKTAFPKGVSFHVQVTMPQ
Regarding B1, the binding result in test [1] is “no binding”; in test [2], “no binding”; in test [3], “binds”.
